First the molecules themselves.
B1: ENSG00000118705:stop:overlap|stop_codon|ENSG00000118705|stop_codon|NA|stop_codon (ssRNA)
RNA: GGGAGUUCUACAGUCCGACGAUCUGACGUUUCUGGCUGGCAAUCGGAUGCUGGCCCAGCAGGCAGUCAAGAGAACAGCACAUUAGUUCCAGAAGAAAGAUGGAAAUUCUGAAAACUGAAUGUCAAGAAAAGGAGUCAAGAACACAACAGAGGAUUGAGCAUCA
B2: chr9:135932998:135933099:-|3pUTR|ENSG00000130560|unk|FALSE|unique (ssRNA)
RNA: GGGAGUUCUACAGUCCGACGAUCGCUGCUUGAAUUGCCGUGUAGACAUUUGCUUGGAGAGUCCACUUGUUAUUUGACGGAGGUAGGUUUCAACCCAGAGUUAAUGUCAAGCAUGCUAAUUUAACUAGUCACUCACAGAUGACUCAACAGAGGAUUGAGCAUCA
B3: chr9:133361993:133362109:-|3pUTR|ENSG00000148248|msi1_unk|total|mutant (ssRNA)
RNA: GGGAGUUCUACAGUCCGACGAUCGGCAGGUUUCUGCUCAUAAGUGCUUUUGGAAGUCACCUACCUUUUUAACACAGCCGAACCCGUCCCAACGCGUUUGCAAAUAUUCCCCUGGCCGCCUACUUCCUUACCCCCGAAUAUUGGCAACAGAGGAUUGAGCAUCA
B4: chr16:67991837:67991979:-|CDS|ENSG00000167261|control|control|control (ssRNA)
RNA: GGGAGUUCUACAGUCCGACGAUCAACGACACUCAGAAAUUGGCCUGCCUCAUCGGUGUAGAGGGUGGCCACUCGCUGGACAAUAGCCUCUCCAUCUUACGUACCUUCUACAUGCUGGGAGUGCGCUACCUGACGCUCACCCACCAACAGAGGAUUGAGCAUCA
B5: chr12:50175971:50176072:-|3pUTR|ENSG00000050405|msi1|total|mutant (ssRNA)
RNA: GGGAGUUCUACAGUCCGACGAUCCACAGUAUUCUCAGGGUGAAAUUAAACCAACUACCGGCCUUUUUCUUGGGAUGAUUUUCCCGUCUUAAGGUUUGGGGACAUUAUAAACUUGAGUACAUUUGUUGUACACAGUUGAUAUUCCAACAGAGGAUUGAGCAUCA
B6: ENSG00000104980:stop:overlap|stop_codon|ENSG00000104980|stop_codon|NA|stop_codon (ssRNA)
RNA: GGGAGUUCUACAGUCCGACGAUCUGCGGACGAGCGAGGUGCUACGGAAGAAGCUUGGGGAGCUGACGGGCACCGUGAAGGAGUAGAGCCUUCACGAAGUCAGUAAAAGUGAUCUCGGCCGGAAAAUCAAGGAGGGCGUGGAGGCAACAGAGGAUUGAGCAUCA
B7: ENSG00000178234:stop:overlap|stop_codon|ENSG00000178234|stop_codon|NA|stop_codon (ssRNA)
RNA: GGGAGUUCUACAGUCCGACGAUCUGUUAUCUGUUUCUAUAAUGAAGCGUUUUCUGCCUUGCUUCGGACAGUGCACAGUGUCAUAGACCGCACGCCAGCACACCUGCUUCAUGAGAUCAUCCUUGUGGAUGAUGAUAGUGACUUCAACAGAGGAUUGAGCAUCA
B8: chr10:5457295:5457390:+|3pUTR|ENSG00000173848|msi1_unk|total|mutant (ssRNA)
RNA: GGGAGUUCUACAGUCCGACGAUCUCUGGAUUCAUCAUGGCUUUCUAAUACCAAUUGUAAUAUUUACAAUAUUCACCAAAACUCCGAAUUUUGCAAAUGCUGGAAUUCUGCCAGUGUUUCUUUGCUAAGCCUUGCAUGCAAAAUCAACAGAGGAUUGAGCAUCA
B9: chr1:152033651:152033752:-|CDS|ENSG00000163191|unk|total|mutant (ssRNA)
RNA: GGGAGUUCUACAGUCCGACGAUCGGAUGGUUAUAACUACACUCUCUCCAAGACAGAGUUCCUAAGCUUCAUGAAUACAGAACCCGCUGCCUUCACAAAGGUACUGGUCCCUGUCUCCCCCACUUCCCCAAACUACCCACAACACAACAGAGGAUUGAGCAUCA
B10: chr12:120700859:120700960:+|3pUTR|ENSG00000110917|msi1|FALSE|unique (ssRNA)
RNA: GGGAGUUCUACAGUCCGACGAUCUCUUUGCAUCUGUGUGGCUUGCUUCCAGUCUGGCCUGUCCUUUCCAGCUGCCUUUUGUCUAGCCUGCUAUGGGGGGCCAGAUUAUCUUGAUAAGAGCAGGUGAUUUGGGGACUAGCUGGGCAACAGAGGAUUGAGCAUCA
B11: chr14:71723713:71723820:+|CDS|ENSG00000197555|unk|FALSE|unique (ssRNA)
RNA: GGGAGUUCUACAGUCCGACGAUCGCUGCCCCCUCACAGCUCGCACCAUCCUUCUCCUCCUCUUCCUCCUCCUCCUCUGGUCCUAGGAGUUUUUACCCUCGCCAGGGCGCUACUAGCAAGUACCUGAUUGGAUGGAAAAAACCCCAACAGAGGAUUGAGCAUCA
B12: chr16:30989255:30992820:-|three_prime_utr|ENSG00000099365|control|control|control (ssRNA)
RNA: GGGAGUUCUACAGUCCGACGAUCGCAGACCCUGGUGUCCCUGGACCUCACCGGGCCAUGGACCCCCCCCCCGUCCCCGCACGUAGAUCGCAGCAGGCGUGAUUACACAUGCACACCAACAUGCAUGCCGCCGGCACAUGCUCGCAACAGAGGAUUGAGCAUCA
B13: chr3:111884732:111884833:+|CDS|ENSG00000144824|msi1|FALSE|unique (ssRNA)
RNA: GGGAGUUCUACAGUCCGACGAUCCUUCAACCCAAGUUAACUAGACACAAGGAGCUUGCAUCUGAAAACAUCAAUUUGAGAACUAGGAAGUACUCCAGCAGCAGCCUGAGUCACAUGGGAGCCUACAGCCGAUCACUUCCCAGGCAACAGAGGAUUGAGCAUCA
B14: chr1:28768968:28769069:+|3pUTR|ENSG00000198492|msi1|FALSE|bound_elsewhere (ssRNA)
RNA: GGGAGUUCUACAGUCCGACGAUCGACUGCAGCAACGGUUGCAUCUGCAUAUCCUAAGAGGAAAAAAUGACCUUCAAGAGAAUUAGGACUUUUUUCUUAAUUUCACUGACUUCAGAGACGAUUGCAGACUUGCAGUUUAAGUAUCAACAGAGGAUUGAGCAUCA
B15: chr11:18297563:18297669:-|CDS|ENSG00000110756|unk|total|mutant (ssRNA)
RNA: GGGAGUUCUACAGUCCGACGAUCGAUCUAAUUUCUCAACUGGAAGAAUUGAUCUUAAAAUUUGAACCUUUGGAUUCAGCUUGCCGCAGCCGAAGAAGCUCCAUUUCAUCACAUGUAAGUAUUCUCACCUUUAAAGGAUUUUGUCAACAGAGGAUUGAGCAUCA
B16: chr12:32745429:32745530:+|3pUTR|ENSG00000087470|msi1|total|mutant (ssRNA)
RNA: GGGAGUUCUACAGUCCGACGAUCCAACGGAAAGAGAAAAGCCUUCCUUUGUUGGCCCUUAAACUGAGUCAAGAUCUGAAAUGCCGAGAUGAUCUCUGACGAUACCUGUAUGUUCUUAUUGUGUAAAUAAAAUUGCUGGUAUGACAACAGAGGAUUGAGCAUCA
B17: ENSG00000107863:be:win_4551|CDS|ENSG00000107863|bound_else_gene|NA|bound_elsewhere_windowed (ssRNA)
RNA: GGGAGUUCUACAGUCCGACGAUCCAGCUGUCGCUUUGCCAUCCUGAAAGAGAGCCCCAGGUCACUUCUGGCACAGAAGUCCUCCCACCUUGAAGAGACAGGCUCUGACUCUGGCACUUUGCUCAGCACGUCUUCCCAGGCCUCCAACAGAGGAUUGAGCAUCA
B18: chr8:39103990:39104232:+|3pUTR|ENSG00000168615|msi1|total|mutant (ssRNA)
RNA: GGGAGUUCUACAGUCCGACGAUCGUUUUGUCAUUAAGUGUUUAAGUGUUAUUCUGAAUUUUCUACCUCCGUUAUCAUUAAUGCCGUUCCUCAUUGAACAUGUGAUAAUCUAAUACCUGUGAAAACUGACUAAUCAGCUGCCAACAACAGAGGAUUGAGCAUCA
B19: chr10:119917856:119917957:+|CDS|ENSG00000107651|unk|total|mutant (ssRNA)
RNA: GGGAGUUCUACAGUCCGACGAUCUAAGAAAAUCACUUUGCCAAGUAUUGGUCGAUUUCGUCACUUUACCAAUGAAACUUUGCCCGAUAUUUUAUUUUAUAACAGCCCCACCUACUGUCAGACAAUUGUGGAAAAAGCCGGAAUCAACAGAGGAUUGAGCAUCA
B20: chr15:49134392:49134529:-|CDS|ENSG00000166200|unk|FALSE|unique (ssRNA)
RNA: GGGAGUUCUACAGUCCGACGAUCAUAUUUGCUUUCCUAGACUGAUGAUGGAGAAGAUGAUCUGAAAAAAGGUACACAGUUAUUAGAAAUAUAUGCUUUGGAAAUUCAAAUGUACACAGCACAGAAAAAUAACAAAAAACUUAACAACAGAGGAUUGAGCAUCA
B21: ENSG00000087269:stop:overlap|stop_codon|ENSG00000087269|stop_codon|NA|stop_codon (ssRNA)
RNA: GGGAGUUCUACAGUCCGACGAUCGGCUGGCUGGUCUCGAAUUCCCGACCUCAGGUAAUCCACCUGCCUUGGCCCCCCAAUUAUAGGUGUGAGCCACAGCACCCAGCCAAAAAAGUAAUUUUUUUUAGAGUAAUAAUGCUAUAACAACAGAGGAUUGAGCAUCA
B22: chr7:138585310:138585366:+|3pUTR|ENSG00000122779|msi1_unk|total|mutant (ssRNA)
RNA: GGGAGUUCUACAGUCCGACGAUCCUCUUUAAGUUGAAAAGUAAAAAAUAUAUGUGGUUUGGAUGUGUGCUUUAAUUCAGCUUCCGAAAUUAAUACCACUACCCGUGAAUUAUAUGGCCUGACAAUAUGAAUCCGGUGUACUGUCAACAGAGGAUUGAGCAUCA

Some of the results follow.

The test addresses T1, UNK ZnF1-6 (called full-length) (human, UniProt Q9C0B0 30-357).
T1 sequence: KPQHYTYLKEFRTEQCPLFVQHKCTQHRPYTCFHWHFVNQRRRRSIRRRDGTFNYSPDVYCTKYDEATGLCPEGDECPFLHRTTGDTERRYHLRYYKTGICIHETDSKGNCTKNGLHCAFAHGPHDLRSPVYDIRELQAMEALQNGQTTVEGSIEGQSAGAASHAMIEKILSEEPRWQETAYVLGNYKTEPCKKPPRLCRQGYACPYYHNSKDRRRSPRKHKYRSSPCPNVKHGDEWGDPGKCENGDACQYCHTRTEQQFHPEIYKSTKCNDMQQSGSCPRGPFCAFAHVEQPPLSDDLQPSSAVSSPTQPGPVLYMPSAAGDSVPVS
Nature of the test: nsRBNS (natural sequence RNA bind-n-seq); RBNS binding buffer (assumed for nsRBNS): 25 mM Tris pH 7.5, 150 mM KCl, 3 mM MgCl2, 0.01% Triton X-100, 500 ug/ml BSA, 20 U/ml SUPERase-In, 4 C; UNK is unkempt and MSI1 is Musashi-1; names of the RNAs are library labels; protein concentration not given here; high values mean tight binding.
For the molecule B1, the binding signal was 0.739 enrichment R.
The result for B2 reads 0.638 enrichment R.
With B3 the figure was 0.605 enrichment R; with B4, 0.601 enrichment R; with B5, 0.37 enrichment R.
With B6 the figure was 1 enrichment R.
On to B7, for which the binding signal was 0.514 enrichment R.
In turn, B8 returned a binding signal of 0.346 enrichment R.
As for B9, the binding signal was found to be 0.699 enrichment R.
The result for B10 reads 0.772 enrichment R; that for B11, 0.953 enrichment R; that for B12, 0.96 enrichment R.
The result for B13 reads 0.843 enrichment R; that for B14, 0.274 enrichment R.
Molecule B15 registered a binding signal of 0.498 enrichment R.
In the case of B16, the binding signal was found to be 0.307 enrichment R.
Consider B17, for which the binding signal turned out to be 0.703 enrichment R.
The result for B18 reads 0.553 enrichment R; that for B19, 0.581 enrichment R.
With B20 the figure was 0.68 enrichment R; with B21, 0.968 enrichment R; with B22, 0.713 enrichment R.

The values above are taken from article PMC12136788.
